# Results taken from the BET-seq Pho4 binding data (Le et al. 2018).
# The other results are listed elsewhere or left out. The energies were worked out here from pooled read counts, against the library average; single values are noisy.
# Biological target: T1, Pho4 (S. cerevisiae) (UniProt P07270)
# T1 sequence: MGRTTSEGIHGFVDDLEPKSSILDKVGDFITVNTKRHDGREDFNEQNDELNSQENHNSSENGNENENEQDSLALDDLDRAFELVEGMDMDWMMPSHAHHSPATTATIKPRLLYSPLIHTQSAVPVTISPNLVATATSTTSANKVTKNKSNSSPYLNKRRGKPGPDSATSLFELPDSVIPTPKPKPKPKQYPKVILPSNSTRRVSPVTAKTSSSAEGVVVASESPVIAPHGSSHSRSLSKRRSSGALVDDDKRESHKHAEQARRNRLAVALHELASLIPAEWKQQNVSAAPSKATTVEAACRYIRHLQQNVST
# Test: relative binding free energy (BET-seq); higher = weaker binding
# Details: reference: library average
row,Sequence,relative binding free energy [kcal/mol]
1,AGTGGCACGTGGTTGT,-0.04
2,TAGGTCACGTGCATAA,0.03
3,TTCTGCACGTGAGTCG,0.36
4,CGGGACACGTGGTTGC,0.01
5,GGGCGCACGTGCGCTG,-0.1
6,ACAGGCACGTGGGGAT,-0.2
7,TTAGTCACGTGGGCAA,0.02
8,TTGTACACGTGGGTGC,-0.09
9,AAGTGCACGTGAGAGT,0.14
10,GCGGGCACGTGGTGAG,-0.02
11,CGGTTCACGTGACGTG,0.24
12,ACGGGCACGTGCTGGT,-0.25
13,CAGGTCACGTGCGGTG,0.13
14,GTTCGCACGTGATTTT,0.1
15,TTGGACACGTGATGTA,0.06
16,ATGTGCACGTGTTTGC,-0.19
17,TTTTGCACGTGCGAGG,-0.05
18,GCGTTCACGTGGCGTT,0.18
19,GTGGACACGTGGGACT,-0.09
20,TCAATCACGTGGAGGT,0.3
21,TGGGACACGTGGTTGA,0.02
22,GGCGGCACGTGGAGAT,-0.01
23,ATTGTCACGTGAGGGA,0.18
24,AGGGCCACGTGAGTTA,0.21
25,TGAGGCACGTGTGAGT,-0.08
26,AGTTTCACGTGGGTGA,0.23

row,Sequence,relative binding free energy [kcal/mol]
1,TGGTTCACGTGAGCGG,0.41
2,GTTATCACGTGGAGGC,0.28
3,TTGTTCACGTGTCCTT,0.15
4,TCATTCACGTGGGGAA,0.24
5,CGGTGCACGTGTGCTG,0.08
6,CGGCTCACGTGAGGTG,0.5
7,AGTGACACGTGGGGCA,-0.17
8,CTTGGCACGTGGGTAA,-0.18
9,GTGTGCACGTGTACGT,0.1
10,AGGAACACGTGGGAGT,-0.06
11,TGTTTCACGTGTTTTC,0.29
12,AATGTCACGTGTGGCT,0.11
13,ATTTGCACGTGAGTCG,0.36
14,ACGGGCACGTGGGATG,-0.28
15,TGTCACACGTGGAAGT,0.13
16,TATTGCACGTGACTGA,0.15
17,GTTGTCACGTGGAGAG,0.11
18,ATTTGCACGTGGCGGG,-0.02
19,CAGCGCACGTGTGGAG,0.02
20,GGGGTCACGTGAGGTT,0.4
21,GGGGTCACGTGAGATC,0.44
22,AGTGTCACGTGGTTAT,-0.01
23,GTGCGCACGTGTGTGC,-0.18
24,TAATGCACGTGTGTTT,0.05
25,GGAGGCACGTGGCGTA,-0.28
26,ATGATCACGTGGGAGT,0

row,Sequence,relative binding free energy [kcal/mol]
1,GCTGTCACGTGTGGGA,0.23
2,TGTAGCACGTGGATAG,-0.06
3,GAAGGCACGTGTGTGG,-0.08
4,ATGCACACGTGGTAGG,-0.08
5,GGGAACACGTGGTATG,-0.04
6,GTATTCACGTGTAAAG,0.24
7,CACTGCACGTGTGGGT,0
8,AGGAACACGTGATTGT,0.19
9,GTGACCACGTGGGTGG,-0.14
10,AAGCTCACGTGTGGTG,0.04
11,TTGTTCACGTGATCGC,0.36
12,GTGGTCACGTGAGAGA,0.4
13,TGAGGCACGTGAGGTA,0.17
14,AGGAGCACGTGGAAGG,0.05
15,TGGTGCACGTGATTTC,0.11
16,CAGTTCACGTGTAGTT,0.17
17,TGTGGCACGTGTCTTA,-0.15
18,GTAGTCACGTGATAAT,0.22
19,AGCTTCACGTGAGTGG,0.21
20,TTGTACACGTGTGTTA,0.12
21,ATGGGCACGTGGCTAG,-0.39
22,TGTTGCACGTGATCGG,0.03
23,AAATGCACGTGTGAAT,0.17
24,GTAGTCACGTGCGGTG,0.17
25,GTCGGCACGTGGGGTA,-0.12
26,GGTTACACGTGAAAGT,0.34

row,Sequence,relative binding free energy [kcal/mol]
1,ACTATCACGTGGTGAG,0.1
2,CAGTACACGTGTTGTT,0.01
3,TTTAGCACGTGAGTGT,0.08
4,GAAGGCACGTGACGTG,0.07
5,TGTAACACGTGGTTAA,-0.02
6,GACGGCACGTGATTGG,0.19
7,GAAGACACGTGTTGTG,0.11
8,AAGCGCACGTGTATGG,0.02
9,GGTGTCACGTGGGGAA,0.03
10,ACGGACACGTGGGGTT,-0.06
11,GTTTGCACGTGAAATT,0.24
12,GGTCTCACGTGGTCGG,0.22
13,CATAGCACGTGAGGGG,0.23
14,ATAGGCACGTGTTTCA,-0.11
15,CTTGGCACGTGTGGAA,0.05
16,GTATCCACGTGGTAGG,-0.05
17,GAGTGCACGTGTGTTT,0.14
18,TCTATCACGTGCGTTG,0.29
19,GGCGGCACGTGGTCTG,-0.17
20,AGAGTCACGTGGAAAA,0.43
21,TTACTCACGTGGTTTG,0.25
22,GGGTGCACGTGAGCGA,0.08
23,GCGTTCACGTGGAAAG,0.44
24,TACGTCACGTGCGGGT,0.04
25,TGGCTCACGTGGGAGA,0.08
26,GGGCACACGTGGGTTC,0.01

row,Sequence,relative binding free energy [kcal/mol]
1,GGGTGCACGTGTCAGA,0.04
2,GTTTTCACGTGGGTGG,0.3
3,CTAGGCACGTGTGGTC,-0.1
4,TGTATCACGTGCATTG,0.07
5,TTCGGCACGTGCAGTT,0.07
6,GTGGGCACGTGTAGGT,-0.03
7,TATGTCACGTGGTACT,-0.06
8,TCTTTCACGTGGTGCA,0.28
9,TGAGTCACGTGGCAAT,0.12
10,AGTGTCACGTGTAATT,0.1
11,GTCGCCACGTGGTGTA,-0.04
12,GGTCCCACGTGGATGT,0.02
13,TATGACACGTGTTTAT,0.03
14,TCTTTCACGTGAGGGG,0.41
15,ATTTTCACGTGGGCGC,0.18
16,GATATCACGTGTGATT,0.27
17,CGAGTCACGTGTAGGG,0.01
18,GTTGTCACGTGGTTAT,0.14
19,TTCTGCACGTGTTCAT,0
20,TTTTACACGTGTCTTT,0.12
21,CATGACACGTGGGGTG,-0.19
22,ATCGGCACGTGGGTAG,-0.2
23,ACGGGCACGTGAGGAT,0.21
24,TTTTTCACGTGGCTAA,0.3
25,TGAGACACGTGACGGG,0.14
26,TTTGTCACGTGGGAAG,0.02

row,Sequence,relative binding free energy [kcal/mol]
1,TTAGTCACGTGTTCTG,0.14
2,TGGATCACGTGTCGAT,0.12
3,ATGAACACGTGTACGG,0.17
4,GTCAGCACGTGGTTGG,0.03
5,GATAGCACGTGCTGGT,-0.11
6,AATTTCACGTGGAGCA,0.35
7,TTAATCACGTGTTGAT,0.15
8,TATTCCACGTGTGTAG,0.05
9,GTGAGCACGTGGTAAT,-0.17
10,GATATCACGTGGGGTA,0.04
11,TTGTTCACGTGGGGTA,0.14
12,ATGTTCACGTGCGGGC,0.13
13,GTTTTCACGTGTCTGG,0.42
14,TAGTGCACGTGCTCGT,-0.09
15,TAACGCACGTGTTGGG,-0.12
16,TGACGCACGTGGGGGG,-0.17
17,GGTACCACGTGTTGTT,0
18,GTGTTCACGTGATAGT,0.25
19,GCTTACACGTGGGAGT,0.15
20,ACTTGCACGTGAGAGT,0.37
21,ATTGGCACGTGTGGGA,-0.03
22,GTTTTCACGTGCTGTC,0.27
23,GTAGTCACGTGCTTTT,0.13
24,ATCTGCACGTGCTGGG,-0.01
25,TGTGGCACGTGCCAGT,-0.08
26,TATTGCACGTGTAGCA,0.14

row,Sequence,relative binding free energy [kcal/mol]
1,AACGTCACGTGGTGGC,0.11
2,GGTGGCACGTGTGGCA,0.04
3,TGGTACACGTGATATT,-0.01
4,TGTTTCACGTGTGAAA,0.29
5,GGGTTCACGTGGTTTG,0.37
6,ATGTACACGTGTGTAT,0.11
7,TTTGGCACGTGCCGAG,-0.22
8,TGTGCCACGTGTTGAC,0.06
9,AGATTCACGTGTCTGT,0.24
10,TGATTCACGTGGAATT,0.34
11,TTCTTCACGTGAGTTA,0.35
12,CAGCGCACGTGTAGGG,-0.15
13,GGTTGCACGTGGGCAT,-0.07
14,GGCATCACGTGCTTGT,0.28
15,TGAGTCACGTGTTTTC,0.12
16,CTGAACACGTGGGGTA,-0.05
17,CTTTACACGTGTGAGA,0.17
18,TTTAACACGTGAGTTA,0.15
19,GGATGCACGTGTGGCG,0.11
20,GTGTTCACGTGGCCTT,0.21
21,CTGGTCACGTGAGTGC,0.12
22,TGAAGCACGTGGAGGA,-0.01
23,TGTTTCACGTGGAACA,0.24
24,TTTAGCACGTGTGTGT,0
25,AGTTTCACGTGAAGCT,0.31
26,ATTGGCACGTGGGACT,-0.12

row,Sequence,relative binding free energy [kcal/mol]
1,GATTACACGTGTGGAT,0.31
2,AGTGGCACGTGGAAAT,0.05
3,TGCTGCACGTGAGTCT,0.35
4,AATTGCACGTGTGTTT,0.08
5,TTTAGCACGTGTCATG,-0.09
6,TAGTACACGTGTCTTA,0.13
7,TTGATCACGTGTAGCA,0.23
8,GTATACACGTGGAGGT,0.03
9,ATATCCACGTGGATGT,0.01
10,AATTGCACGTGACGAG,0.21
11,TGGGTCACGTGATCTT,0.31
12,TCAGGCACGTGGAGTG,-0.1
13,AAAGTCACGTGCTATT,0.14
14,TGTAGCACGTGGTTAA,-0.08
15,ATGTACACGTGTGCTG,-0.03
16,GTGAGCACGTGGCAGT,-0.2
17,GTTTACACGTGTAAGT,0.16
18,TTTAACACGTGATAGT,0.17
19,TATTACACGTGTTGAG,0.06
20,TGGGTCACGTGTCATG,0.1
21,GTAGACACGTGGTATG,-0.09
22,AGTCTCACGTGTTATG,0.14
23,AGGGGCACGTGAGGGA,0.15
24,TGATTCACGTGCGCTT,0.26
25,TCGTGCACGTGGTATG,-0.02
26,TTTAACACGTGTTGTT,0.04

row,Sequence,relative binding free energy [kcal/mol]
1,GCTGACACGTGTGGGT,0.16
2,TGGCGCACGTGGGATT,-0.11
3,AAAGGCACGTGGTAAT,-0.08
4,ATGGCCACGTGATGGT,0.09
5,ATGGGCACGTGTTGAG,-0.05
6,GGTTTCACGTGCGAAG,0.38
7,GGGCTCACGTGGGATT,0.27
8,TACTGCACGTGGTATT,-0.14
9,GTTATCACGTGGCGGA,0.15
10,GGTGACACGTGGGATC,0.03
11,ATCTTCACGTGTTATT,0.08
12,AGGAGCACGTGACAGT,0.1
13,ATGATCACGTGGAATG,0.19
14,TAGGGCACGTGACTGT,-0.03
15,ATGTGCACGTGGCTGG,-0.13
16,CAGGCCACGTGGTGTT,-0.06
17,CATAGCACGTGTGTGT,-0.1
18,GAAGTCACGTGGGGAG,0.06
19,GGTGTCACGTGACGAT,0.19
20,CGGTACACGTGGTGAA,0.05
21,TAAGTCACGTGTCGGA,0.1
22,GTGTGCACGTGTAGTA,0.03
